# Results published in PubChem BioAssay AID686978 (National Center for Advancing Translational Sciences (NCATS), 2013).
# In all, about 420,000 compounds went through this assay and about 64,000 (15%) were called active. This list was built around the results that the source calls inconclusive (neither active nor inactive); the mix of calls is not that of the screen. Calls come from the whole dose curve; as a rule, active = well fitted inhibition curve with a large enough effect; inconclusive = small, poorly fitted or top-dose-only effect; inactive = flat fitted curve, though single readings scatter. Potencies of inconclusive entries are left out as doubtful fits.
# Test: qHTS for Inhibitors of human tyrosyl-DNA phosphodiesterase 1 (TDP1): qHTS in cells in absence of CPT; note: nearly all actives have a fitted effect of over 55% in size
# Settings: DT40 Tdp1-/- hTDP1 cells, no CPT, ATP luminescence, 48 h; activity change, negative = growth inhibition: at 46.2 µM (top of the series) unless noted
# Method in brief: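 DT40 Tdp1-/-;hTDP1 cells, no CPT (DMSO vehicle only), 400 cells/well; compounds pin-transferred; ≥48 hr, 37 °C; CellTiter-Glo 30 min RT dark, luminescence read.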
# % is set by controls: 0 for no effect and ±100 for the full control effect; potency is the fitted concentration of half-maximal effect; tags give direction and shape of the fitted curve.
Structure (SMILES),Potency,"activity change, negative = growth inhibition"
Cn1c(=O)cc(OCC(=O)NCCCN2CCN(c3cccc(Cl)c3)CC2)c2ccccc21,active: 16.4 µM,
CCC(=O)Nc1c(C)n[nH]c1C,,inactive: -10%
CCCN1CCCc2ccccc21,,inconclusive: -34.7% [inhibitor]
O=c1[nH]cc(S(=O)(=O)N2CCN(c3cccc(Cl)c3)CC2)c(=O)[nH]1,,inactive: 19.3%
Cc1ccc(-c2csc(N3CCN(CCCn4c(C(F)(F)F)nc5ccccc54)CC3)n2)cc1,active: 14.6 µM,
CCOc1cc(N2CCOCC2)c(OCC)cc1NC(=O)CN1C(=O)NC(C)(C2CC2)C1=O (configuration not stated),,inactive: 9.31%
COc1ccccc1C(=O)N1CCN(C(=O)c2oc3ccc(C)cc3c2C)CC1,"inconclusive [inhibitor, single point]",
Cc1ccnc(NS(=O)(=O)c2ccc(NC(=O)c3ccc(S(=O)(=O)N4CCOCC4)cc3)cc2)n1,,inactive: -8.99%
COCCNC(=O)/C(C#N)=C/c1ccccc1Br,active: 16.4 µM,
O=C(CCN1C(=O)NC2(CCCC2)C1=O)Nc1cccc(S(=O)(=O)N2CCOCC2)c1,,inactive: 19.4%
CCOC(=O)c1sc(NC(=O)CCN2CCN(C)CC2)c(C(=O)OCC)c1C,"inconclusive [inhibitor, single point]",
Cc1ccc(C(=O)N2CCN(S(=O)(=O)c3ccccc3[N+](=O)[O-])CC2)o1,"inconclusive [inhibitor, partial curve]",
COc1cc2[nH]c3c(Cl)ncnc3c2cc1OC,active: 20.6 µM,
C=CCNC(=O)c1ccccc1SCc1c(C)noc1C,,inactive: 5.86%
CCOC(=O)c1ccc(-n2c(CN3CCC(C(N)=O)CC3)nc3ccc([N+](=O)[O-])cc3c2=O)cc1,,inactive: -11.2%
CC(C)(C)S(=O)(=O)N1C[C@H]2CC/C=C\C/C(c3ccccc3)=C\2[C@@H]1CCO,"inconclusive [inhibitor, single point]",
CCn1cc(C(=O)NCCc2ccccc2C)c(=O)c2ccc(C)nc21,"inconclusive [inhibitor, single point]",
O=C(NCCN1CCOCC1)c1cnn(-c2ncc3c(n2)-c2ccccc2CC3)c1C1CC1,active: 23.1 µM,
Cc1ccc(S(=O)(=O)C(CNC(=O)C(=O)NCc2ccc(Cl)cc2)c2cccs2)cc1 (configuration not stated),"inconclusive [inhibitor, single point]",
COc1ccc(-c2noc(CN3CCN(c4ccccc4)CC3)n2)cc1,,inactive: -22.4%
O=C1c2cccnc2C(=O)N1Cc1ccc(F)cc1S(=O)(=O)NCc1ccco1,,inactive: -1.27%
Cc1ccc(C2=NN3C(C2)c2ccccc2OC32C(=O)Nc3ccccc32)cc1 (configuration not stated),"inconclusive [inhibitor, single point]",
CCC(=O)N1c2ccc(S(=O)(=O)N3CCN(c4ccccc4)CC3)cc2CC1C (configuration not stated),"inconclusive [inhibitor, partial curve, poor fit]",
CC(=O)c1ccc(NC(=O)c2cn3c4c(ccc(Cl)c4c2=O)OC(C)C3)cc1 (configuration not stated),,inactive: -12.2%

Structure (SMILES),Potency,"activity change, negative = growth inhibition"
Cc1ccccc1-n1nnnc1SCC(=O)NC1CC1,,inactive: -13.8%
Cc1ccc(CCSc2ccc(F)cc2)cn1,"inconclusive [inhibitor, single point]",
COc1cc(/C=N/NC(=O)c2ccc(CSc3nc4ccccc4[nH]3)cc2)ccc1O,"inconclusive [inhibitor, single point]",
CCCCCCn1cc(CN2CC(N3CCSCC3)CS2(=O)=O)nn1 (configuration not stated),,inconclusive: -33.8% [inhibitor]
COc1ccc(-c2ccc(CN3C(C(C)C)C(=O)N(Cc4cn(CCC5OCCCO5)nn4)CCS3(=O)=O)cc2)cc1OC (configuration not stated),"inconclusive [inhibitor, single point]",
O=S(=O)(c1ccc2c(c1)CCN2)N1CCCC1,,inactive: 8.87%
Cc1ccc(/C=N/NC(=O)c2nnn(-c3nonc3N)c2-c2cccs2)cc1,"inconclusive [inhibitor, single point]",
Cc1ccc(S(=O)(=O)c2cn(CC(=O)Nc3ccc(C)c(Cl)c3)c3ccc(C)cc3c2=O)cc1,,inactive: 1.25%
Cc1c(NC(=O)c2ccc(OC(C)C)cc2)cccc1-c1nc2ncccc2o1,"inconclusive [inhibitor, single point]",
CC(Oc1ccc(F)cc1)C(=O)NCC1(N(C)C)CCCCC1 (configuration not stated),,inactive: 0.596%
CCCCc1ccc(/C=C2/C(=O)ON=C2c2ccccc2)s1,"inconclusive [inhibitor, single point]",
O=C(COc1ccc(/C=N/NS(=O)(=O)c2ccccc2)cc1)NCCc1ccccc1,"inconclusive [inhibitor, single point]",
N=c1c(C(=O)NCc2ccccc2)cc2c(=O)n3ccccc3nc2n1CCCN1CCOCC1,"inconclusive [inhibitor, single point]",
O=C1CN(C(=O)c2ccc(S(=O)(=O)N3CCCCC3)cc2)C(c2ccc(F)cc2)c2cc(F)ccc2N1 (configuration not stated),"inconclusive [inhibitor, single point]",
Cc1ccc(CNC(=O)C2CCCN(S(=O)(=O)c3ccc4c(c3)oc(=O)n4C)C2)cc1 (configuration not stated),"inconclusive [inhibitor, full curve, poor fit]",
COc1ccc2c(c1)c(=O)oc1c(C)c(OCc3ccc(C(=O)O)cc3)ccc12,"inconclusive [inhibitor, single point]",
O=C1CCC2c3ccc4ccccc4c3CCN12 (configuration not stated),"inconclusive [inhibitor, partial curve, poor fit]",
O=C(C[n+]1cccc2cc(Cl)ccc21)c1cccc([N+](=O)[O-])c1,"inconclusive [inhibitor, partial curve]",
FC(F)(F)c1cccc(NC(=S)Nc2ccc(Cl)c(Cl)c2)c1,active: 13 µM,
Cc1nc2nc(SCC(N)=O)[nH]c2cc1Br,,inactive: -5.03%
Brc1cc(Br)c2ncnc(N3CCCCC3)c2c1,active: 13 µM,
COc1ccc(/C=C/C(=O)Nc2c(C(=O)O)[nH]c3ccccc23)cc1OC,"inconclusive [inhibitor, single point]",
CC(=O)[C@H]1CC[C@@H](c2ccccc2)N(S(=O)(=O)c2ccc(C)cc2)C1,"inconclusive [inhibitor, single point]",
C/C(=N\NC(=O)C(c1ccccc1)c1ccccc1)c1ccccn1,active: 4.61 µM,

Structure (SMILES),Potency,"activity change, negative = growth inhibition"
CCN(CC)S(=O)(=O)c1ccc(S(=O)(=O)N2CCN(C(=O)c3ccco3)CC2)cc1,,inactive: -3.61%
S=C(NCc1ccco1)Nc1ccc(Oc2ccccc2)cc1,"inconclusive [inhibitor, single point]",
CCCS(=O)(=O)Nc1cc(-c2cn3cccc(C)c3n2)ccc1C,active: 18.4 µM,
COc1ccccc1C(=O)N(C)c1nnc(-c2ccccc2)s1,"inconclusive [inhibitor, single point]",
CC(C)Oc1ccc(CNC(=O)CCCn2c(=O)c3cccn3c3ccccc32)cc1,active: 23.1 µM,
CC1CCN(c2nc3ccc(C(=O)N4CCN(Cc5ccccc5)CC4)cc3s2)CC1,"inconclusive [inhibitor, single point]",
Cc1onc(-c2ccccc2)c1C(=O)OCC(=O)Nc1cccc(Cl)c1,"inconclusive [inhibitor, single point]",
CCOC(=O)c1cncc(O)c1,,inactive: 4.2%
CC1CCCCC1NC(=O)c1ccncc1 (configuration not stated),,inactive: 10.8%
COc1ccc2c(c1)C1=NN(/C(C)=C\C(C)=O)C(c3ccccc3)C1CC2 (configuration not stated),"inconclusive [inhibitor, single point]",
COc1ccc(-c2cc(C)no2)cc1S(=O)(=O)N1CCCN(Cc2ccccc2Cl)C1,"inconclusive [inhibitor, single point]",
COc1ccc(NC(=O)CSc2nc3c(c(=O)n2-c2ccc(C)cc2)SCC3)c(OC)c1,,inactive: -4.77%
COc1ccc(/C=N/NC(=O)c2cccc([N+](=O)[O-])c2)c2ccccc12,"inconclusive [inhibitor, single point]",
CCN(CCn1cccn1)C(=O)CC1C(=O)NCCN1Cc1cccc(OC)c1OC (configuration not stated),,inactive: -27%
COCCn1c(SCc2nc3ccccc3s2)nc2ccccc21,"inconclusive [inhibitor, single point]",
COc1ccc(N2CCN(C(=O)CCCCCn3c(=O)[nH]c4ccsc4c3=O)CC2)cc1,active: 16.4 µM,
Cc1ccc(NCc2cccn2-c2nnc(N3CCC(C(=O)NC(C)C)CC3)s2)cc1,"inconclusive [inhibitor, single point]",
COc1ccc(-c2cn3nc(N4CCC(C(=O)NCc5ccccc5F)CC4)sc3n2)cc1,"inconclusive [inhibitor, single point]",
CCOC(=O)c1c(NC(=O)CS(=O)(=O)c2ccc(C)cc2)sc2c1CCCCC2,"inconclusive [inhibitor, single point]",
CC(=O)Oc1cc(C(=O)OCC(=O)NC23CC4CC(CC(C4)C2)C3)cc(OC(C)=O)c1OC(C)=O,"inconclusive [inhibitor, partial curve]",
COc1ccc(N2C(N)=C(C#N)C(c3ccsc3)C3=C2CCCC3=O)c(OC)c1 (configuration not stated),,inactive: 0.566%
CCOc1cccc(=O)c2c(C)n(-c3ccc(C(=O)O)cc3)c(C)c12,"inconclusive [inhibitor, single point]",
Cc1noc(C)c1-c1nccc(Nc2ccc(F)cc2)n1,,inactive: -8.76%
O=C(CSc1ccc2c(c1)OCCO2)Nc1cccc(S(=O)(=O)N2CCCCC2)c1,,inactive: 9.16%
